This note sets out measurements from paper PMC4336329 (PLoS ONE, 2015).

The whole screen tested about 310,000 compounds, of which about 2,200 (0.71%) showed an effect of 50% or more. Effects have a minus sign here. This is one part of the list.

In this assay the target is human ether-à-go-go-related gene (hERG) potassium channel (human, UniProt Q12809). The experiment in a line: primary screen, population patch clamp on CHO cells stably expressing hERG.
human ether-à-go-go-related gene (hERG) potassium channel, sequence (Q12809 whole entry, looked up): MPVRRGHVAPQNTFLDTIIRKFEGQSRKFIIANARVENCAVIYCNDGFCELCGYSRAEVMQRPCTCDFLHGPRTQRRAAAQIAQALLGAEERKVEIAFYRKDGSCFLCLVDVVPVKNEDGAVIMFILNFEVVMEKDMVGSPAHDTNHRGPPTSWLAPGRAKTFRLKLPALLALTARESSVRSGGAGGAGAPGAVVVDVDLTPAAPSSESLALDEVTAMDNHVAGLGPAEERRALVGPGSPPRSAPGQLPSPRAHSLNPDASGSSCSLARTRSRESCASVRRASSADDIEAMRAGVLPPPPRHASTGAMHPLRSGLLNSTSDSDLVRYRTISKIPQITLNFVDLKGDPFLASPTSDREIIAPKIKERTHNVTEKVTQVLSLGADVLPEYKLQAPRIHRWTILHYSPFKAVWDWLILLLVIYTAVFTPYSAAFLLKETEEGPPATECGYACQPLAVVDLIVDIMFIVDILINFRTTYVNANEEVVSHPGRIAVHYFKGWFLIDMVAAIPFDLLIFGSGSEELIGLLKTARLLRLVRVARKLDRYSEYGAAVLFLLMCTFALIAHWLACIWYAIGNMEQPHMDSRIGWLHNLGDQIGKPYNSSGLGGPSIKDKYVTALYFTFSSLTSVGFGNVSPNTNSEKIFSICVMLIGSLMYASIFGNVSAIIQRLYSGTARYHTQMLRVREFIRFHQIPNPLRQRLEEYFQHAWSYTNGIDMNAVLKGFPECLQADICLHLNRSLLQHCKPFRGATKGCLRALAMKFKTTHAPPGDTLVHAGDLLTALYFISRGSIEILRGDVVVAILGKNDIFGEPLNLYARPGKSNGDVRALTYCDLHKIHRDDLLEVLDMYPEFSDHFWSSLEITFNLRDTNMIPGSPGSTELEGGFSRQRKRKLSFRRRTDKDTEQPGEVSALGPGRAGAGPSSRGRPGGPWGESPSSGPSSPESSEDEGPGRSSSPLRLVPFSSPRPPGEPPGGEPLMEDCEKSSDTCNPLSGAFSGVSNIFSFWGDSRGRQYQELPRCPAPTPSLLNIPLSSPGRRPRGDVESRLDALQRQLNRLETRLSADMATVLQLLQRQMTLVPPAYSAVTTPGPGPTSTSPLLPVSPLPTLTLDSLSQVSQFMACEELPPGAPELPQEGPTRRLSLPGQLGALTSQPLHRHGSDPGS
For `COCCN(C(=O)COC(=O)c1oc2ccc(OC)cc2c1C)c1c(N)n(Cc2ccccc2)c(=O)[nH]c1=O`, the “hERG current change (%, negative = inhibition) at 1uM” value is reported as 5.78%.

As for `CCCCNS(=O)(=O)c1ccc2nc(-c3cccnc3)cc(C(=O)NCCCOCC)c2c1`, the “hERG current change (%, negative = inhibition) at 1uM” value was found to be 8.06%.

On to `CCOC(=O)C1=C(C)Nc2sc(C(=O)c3ccc(F)cc3)c(N)c2C1c1ccc(C(=O)OC)cc1` (stereo not shown), for which the “hERG current change (%, negative = inhibition) at 1uM” value is 12.3%.

As to `CCc1nn(C(C)C(=O)NC(C)CCc2ccco2)c(=O)c2cc3occc3n12` (stereo not shown), the “hERG current change (%, negative = inhibition) at 1uM” value is -1.26%.

On to `O=C(Nc1nnc(-c2cc(Cl)ccc2Cl)o1)c1ccco1`, for which the “hERG current change (%, negative = inhibition) at 1uM” value is -16.7%.

`CCOc1ccc(CN2CCN(CCCn3cccn3)CC2CCO)cc1` (stereo not shown): the “hERG current change (%, negative = inhibition) at 1uM” value was -83%.

Regarding `CNC(=O)COc1ccc(-c2nn(C)c(=O)c3ccccc23)cc1`, the “hERG current change (%, negative = inhibition) at 1uM” value was found to be 9.87%.

Consider `CCC(=O)Nc1ccc(C(=O)N/N=C/c2c(C)[nH]c3ccccc23)cc1`, for which the “hERG current change (%, negative = inhibition) at 1uM” value stood at 6.93%.

Consider `Cc1onc(-c2ccccc2Cl)c1C(=O)N1C=CC(C(F)(F)F)=NCC1`, for which the “hERG current change (%, negative = inhibition) at 1uM” value stood at 7.56%.

As to `COC(=O)c1c(NC(=O)c2ccccc2)sc(Cc2ccccc2)c1C`, the “hERG current change (%, negative = inhibition) at 1uM” value is on record as 11.7%.

`Cc1nn(-c2ccccc2)c(C)c1/C=C/C(=O)OCC(=O)NC1CCS(=O)(=O)C1` (stereo not shown): the “hERG current change (%, negative = inhibition) at 1uM” value was 0.376%.

`O=S(=O)(Cc1ccc(Cl)cc1)N1CCN(Cc2ccccc2)CC1`: the “hERG current change (%, negative = inhibition) at 1uM” value was 3.38%.

For `O=C(NN=C1CCCCC1)Nc1ccccc1Cl`, the “hERG current change (%, negative = inhibition) at 1uM” value is 7.34%.

Take `CC(C)c1ncc(C(O)c2cccc3ccccc23)n1C` (stereo not shown): the “hERG current change (%, negative = inhibition) at 1uM” value came out at 6.84%.

In the case of `CCCn1c(N2CCN(CC(=O)c3c(C)n(C)c4ccccc34)CC2)nc2c1c(=O)[nH]c(=O)n2C`, the “hERG current change (%, negative = inhibition) at 1uM” value is recorded as -0.255%.

Regarding `C/C(CCC1CC(C)OC1=O)=N\NC(N)=S` (stereo not shown), the “hERG current change (%, negative = inhibition) at 1uM” value came out at 4.81%.

In the case of `CC(C)c1ccc2[nH]c3c(c2c1)[C@@H]1CCN2C(=O)CCC[C@H](C3)[C@H]12`, the “hERG current change (%, negative = inhibition) at 1uM” value is listed as 6.39%.

`CC(=O)Nc1ccc(S(=O)(=O)N2CCC(C(N)=O)(N3CCCCC3)CC2)cc1`: the “hERG current change (%, negative = inhibition) at 1uM” value was found to be 10.4%.

In the case of `COc1cc2nc(CN(C)Cc3ccc(SC)cc3)[nH]c(=O)c2cc1OC`, the “hERG current change (%, negative = inhibition) at 1uM” value is recorded as -1.18%.

Take `CCCCCCCCNc1nc(Cl)nc(NCCN2CCOCC2)n1`: the “hERG current change (%, negative = inhibition) at 1uM” value was determined as 4.17%.

As for `O=C(/C=C/c1ccc(Cl)cc1)OCC(=O)c1ccc[nH]1`, the “hERG current change (%, negative = inhibition) at 1uM” value is reported as 12.4%.

On to `COc1ccc(Cl)cc1NC(=O)C1CCN(S(C)(=O)=O)CC1`, for which the “hERG current change (%, negative = inhibition) at 1uM” value was 8.98%.

Turning to `C/C(=N\NC(=O)Cn1cc([N+](=O)[O-])cn1)c1ccco1`, the “hERG current change (%, negative = inhibition) at 1uM” value is on record as 2.82%.

As to `CCOc1ccc(NC(=O)Nc2nc(SCC)ns2)cc1`, the “hERG current change (%, negative = inhibition) at 1uM” value is given as 12.3%.

For `O=[N+]([O-])c1cccc(S(=O)(=O)c2ccc(NCCOCCO)c([N+](=O)[O-])c2)c1`, the “hERG current change (%, negative = inhibition) at 1uM” value is reported as -2.71%.

`Cc1cccc(OCCSc2nc3c([nH]2)c(=N)ncn3Cc2ccccc2)c1`: the “hERG current change (%, negative = inhibition) at 1uM” value came out at 4.29%.

`COCCc1ccc(OCC(O)CNC(C)C)cc1.O=C(O)C(O)C(O)C(=O)O` (stereo not shown): the “hERG current change (%, negative = inhibition) at 1uM” value is recorded as 6.18%.

On to `Cc1ccc(C)c(OCC(=O)N/N=C/c2c(C)nn(-c3ccccc3)c2Cl)c1C`, for which the “hERG current change (%, negative = inhibition) at 1uM” value is on record as 3.04%.

Turning to `CCOC(CCNC(=O)c1cn(C)c(=O)c2c1c1ccccc1n2C)OCC`, the “hERG current change (%, negative = inhibition) at 1uM” value is 10.1%.

Take `COc1ccc(-n2c(Cc3cccn3C)nnc2SCC(=O)NCc2ccccc2Cl)cc1`: the “hERG current change (%, negative = inhibition) at 1uM” value is given as 4.63%.

As for `CCCCN(C1CCS(=O)(=O)C1)S(=O)(=O)c1cc(C)ccc1C` (stereo not shown), the “hERG current change (%, negative = inhibition) at 1uM” value is on record as -1.18%.

On to `N#CCCN(Cc1cccnc1)S(=O)(=O)c1ccc(S(=O)(=O)NC2CCCCC2)cc1`, for which the “hERG current change (%, negative = inhibition) at 1uM” value worked out at 12.3%.

For the compound `CN(C)c1ccc(/C=N/NC(=O)c2ccc(CN3C(=O)c4cccc5cccc3c45)cc2)cc1`, the “hERG current change (%, negative = inhibition) at 1uM” value came out at 8.79%.

With `CCC(C)COC(=O)c1ccc(C(=O)O)cc1` (stereo not shown), the “hERG current change (%, negative = inhibition) at 1uM” value was determined as 5.86%.

On to `Cc1cccc(N2CCN(C(c3ccncc3)c3nnnn3C(C)(C)C)CC2)c1C` (stereo not shown), for which the “hERG current change (%, negative = inhibition) at 1uM” value was -2.35%.

With `S=C(Nc1ccc(Cl)cc1Cl)Nn1cnnc1`, the “hERG current change (%, negative = inhibition) at 1uM” value worked out at 29.8%.

Consider `O=C(Nc1ccc(Cl)cc1)Nc1nnc(/C=C/c2ccccc2)s1`, for which the “hERG current change (%, negative = inhibition) at 1uM” value was found to be 8.01%.

On to `Cc1c(C(=O)N2CCN(C(=O)c3ccco3)CC2)oc2c(Cl)cccc12`, for which the “hERG current change (%, negative = inhibition) at 1uM” value came out at 6.18%.

As for `CC(C)C(=O)NC(=S)Nc1ccc(S(=O)(=O)Nc2ccccc2)cc1`, the “hERG current change (%, negative = inhibition) at 1uM” value is -3.61%.

As for `CC(=O)c1cc2c(cc1NC(=O)CN1CCC(Cc3ccccc3)CC1)OCO2`, the “hERG current change (%, negative = inhibition) at 1uM” value came to 6.87%.

For `CCN(CC)CCCN(Cc1cc2cc3c(cc2[nH]c1=O)OCO3)C(=O)Nc1ccccc1OC`, the “hERG current change (%, negative = inhibition) at 1uM” value came to 7.28%.

Regarding `COc1ccc(CCNC(=O)c2c(O)c3ccccc3n(C)c2=O)cc1`, the “hERG current change (%, negative = inhibition) at 1uM” value is 10.5%.

As to `CSc1ccccc1C(=O)NCCCn1ccnc1`, the “hERG current change (%, negative = inhibition) at 1uM” value is given as 16.6%.

Consider `COc1cc(S(=O)(=O)N(C)C)ccc1Br`, for which the “hERG current change (%, negative = inhibition) at 1uM” value is 6.22%.

Regarding `Cc1[nH]c2ccccc2c1CCNC(=O)c1ccc2c(c1[N+](=O)[O-])C(=O)c1ccccc1C2=O`, the “hERG current change (%, negative = inhibition) at 1uM” value came to 15.4%.

With `CN(C)CCNC(=O)C(=O)NCC1CCCN1S(=O)(=O)c1cccs1` (stereo not shown), the “hERG current change (%, negative = inhibition) at 1uM” value stood at 15.4%.

As to `CC(NC(=S)NC1CCCCC1)C(c1cccs1)N1CCOCC1` (stereo not shown), the “hERG current change (%, negative = inhibition) at 1uM” value was found to be 12%.

Take `COCCCn1c(C(=O)N2CCOCC2)cc2c(=O)n3ccccc3nc21`: the “hERG current change (%, negative = inhibition) at 1uM” value is on record as 3.13%.

Consider `O=C(Nc1ccccc1C(=O)N1CCCCCC1)c1cccc([N+](=O)[O-])c1`, for which the “hERG current change (%, negative = inhibition) at 1uM” value came to 6.47%.

As for `O=C(OCC(=O)c1cccs1)c1ccc([N+](=O)[O-])o1`, the “hERG current change (%, negative = inhibition) at 1uM” value came to 10.3%.

`CCC(C)[C@H](N)c1cn([C@@H](CCCCN)C(=O)N2CCNCC2)nn1.Cl` (stereo partly shown): the “hERG current change (%, negative = inhibition) at 1uM” value is reported as 14.1%.

Consider `CCOc1ccc(S(=O)(=O)Nc2ccc(S(=O)(=O)Nc3cc(OC)ccc3OC)cc2)cc1`, for which the “hERG current change (%, negative = inhibition) at 1uM” value worked out at 9.61%.

Regarding `CCOc1cc(-c2noc(CCC(=O)N3CCOCC3)n2)ccc1OC`, the “hERG current change (%, negative = inhibition) at 1uM” value was determined as 10.3%.

Consider `COc1cccc(-c2nnc(Nc3nc4c(F)cccc4s3)o2)c1`, for which the “hERG current change (%, negative = inhibition) at 1uM” value turned out to be 12.4%.

On to `Cc1cc(NC(=O)c2cc(C)on2)n(-c2ccccc2)n1`, for which the “hERG current change (%, negative = inhibition) at 1uM” value stood at 1.51%.
